Paper PMC12136788
This is one part of the list.

B1: chr12:25693320:25693321:+_ENSMUSG00000036333_ENSMUST00000066652|mus_hu|FALSE|FALSE (ssRNA)
RNA: GGGAGUUCUACAGUCCGACGAUCGUCAACUCUAAAUAUAGCCAGAAGAGUAAUUCCAGAUAUAAUGCAGCCAAUGAUAAAAAGGAAGAUGACAAAAGAUGGGAGACAACAUGUUUUUUUCCAUUUCUUUUUACCCUGAGUAUCCAACAGAGGAUUGAGCAUCA
B2: chr1:166823625:166823626:+_ENSG00000143157_ENST00000367875|hu_mus|FALSE|FALSE (ssRNA)
RNA: GGGAGUUCUACAGUCCGACGAUCAUCAAAGUUUAUUACUGGGAUCAGUUUCUAUCUAGGGAGUGCCAGUCCCAGUGAGCUAUGGUAAUUCUCAGGAAACAGCUAUUCUGCUCAAUAGUUGUACUGGGGCUCUGUUAGGCAUAGCAACAGAGGAUUGAGCAUCA
B3: chr7:135839730:135839731:+_ENSMUSG00000042105_ENSMUST00000151237|mus_hu|motif|central (ssRNA)
RNA: GGGAGUUCUACAGUCCGACGAUCAUGGUACUUUAUUUUAAUAAUCACAAGAUUUAACACGUAAAAAAAAAAGAUAGCACGGAUAAAUAACAAAAGUGGAAUGCUUAUCAAAGUAACGACAUAAUGUUCAGUUGAGAAUCAGUCCAACAGAGGAUUGAGCAUCA
B4: chr18:34659469:34659470:-_ENSMUSG00000036501_ENSMUST00000040506|mus_mus|FALSE|FALSE (ssRNA)
RNA: GGGAGUUCUACAGUCCGACGAUCGUCAUUUAUGGCUGUUUGAGAUUAUGGCAGAAGAUCAGCCUGUAGUUCCUCAUUGAAGAAACGCAGAACUCGAUCAGUACUUCAGAACUUAAUCGUUGGAACCGCGAAGCCCCGUUCCCCCAACAGAGGAUUGAGCAUCA
B5: chr5:150025729:150025730:+_ENSMUSG00000041264_ENSMUST00000121416|mus_mus|motif|central (ssRNA)
RNA: GGGAGUUCUACAGUCCGACGAUCCACGAAGGCUCUCUUCUGAUCUUCUUUCCGAGGCUGAUUCUGUGCUGACCUGGCUGCGGCUGUUUUAGAAGACGCUGUGGUUUCUCGUUUUCUCAAAUUAGAUGCCUGAGAUUUACCAGGCAACAGAGGAUUGAGCAUCA
B6: 85416237_85420388_240_3pUTR_ENSMUSG00000001783_ENSMUST00000001834|mouse|control|control (ssRNA)
RNA: GGGAGUUCUACAGUCCGACGAUCAGCCACCAACACCACCACCUCGACAGGCGUUCCUUAAUUCCUCAAACAUUAGUUUUUCCAGAGCAUCAUUCACAUAAAACACUCCUUCAACCUGCAUGUUGGGCACAAAGCCCUUCUUGACAACAGAGGAUUGAGCAUCA
B7: 29839587_29839707_1158_CDS_ENSG00000197321_ENST00000375400|human|control|control (ssRNA)
RNA: GGGAGUUCUACAGUCCGACGAUCCUGCAGGGAGGAGCUGUGGGCGUGCUUGGGGGACCGUGGCACUUCAGUGAAGGAGGAGUCUCGCCCAGAGAAAGAGAAGGUCGAGGAACUCUCGGCUGCUGGGGACAGGUCAUGGGCCUGCAACAGAGGAUUGAGCAUCA
B8: 103538673_103541994_1797_CDS_ENSMUSG00000033004_ENSMUST00000161008|mouse|control|control (ssRNA)
RNA: GGGAGUUCUACAGUCCGACGAUCUGCCUGGAAUCCAAAUCGACCUGCUUUAUUCUGCACAGCUCUUCUACUGCUUUCCCAGUUAAGAAGGUCAUUGAGGUAACUUUAUUCCCCAGAUCCCGGGAGUUGUCCACAUGAACAGAUCAACAGAGGAUUGAGCAUCA
B9: chr2:26769575:26769576:-_ENSMUSG00000015790_ENSMUST00000167661|mus_mus|FALSE|FALSE (ssRNA)
RNA: GGGAGUUCUACAGUCCGACGAUCUGGGCUGUUCUCCGGAACAAAGGGCUUCCUGUUUUCUGUGAGCCUCACUAUGCCAACUAGGUCUACUUCUCCCAGAACCUGGCCUUUCUGUCUGGUCUCAGGAUUCACUUUCUUCCUGGGCAACAGAGGAUUGAGCAUCA
B10: chr17:21088332:21088333:+_ENSMUSG00000007564_ENSMUST00000007708|mus_hu|FALSE|FALSE (ssRNA)
RNA: GGGAGUUCUACAGUCCGACGAUCUCACUUCGGGUCCUUUCAACCCCAAGGGCCAAGGCGAUGGUGGACAGCUUCUUGAUGCUGUUGAGGCGAAGCUGAACGUCCUCAUUGCGGAGUUCGUCUAUGAGCACCGCGAUGGGGUACCAACAGAGGAUUGAGCAUCA
B11: chr1:220276048:220276049:+_ENSG00000067704_ENST00000302637|hu_hu|hu_hu_hu_mus_True|88_98 (ssRNA)
RNA: GGGAGUUCUACAGUCCGACGAUCGCAAAUUGCCUGGUUGGCUGGAAUCGUCCAAGGCUGGGUGGUCCAAACUAAAACGCUAACAGGGGAUGAGGCAUCUGUAAGAGACUCCAACUUCGGAGGAGGUCUCAGGAGGGGGAAUCUCAACAGAGGAUUGAGCAUCA
B12: 116406472_116406720_1001_3pUTR_ENSMUSG00000020802_ENSMUST00000082152|mouse|control|control (ssRNA)
RNA: GGGAGUUCUACAGUCCGACGAUCGCCGCUGAGCAUGGUCAAAGCAUCCGAGACGCUUCACCCUGCCUAGGUUUUCCUGAGUGAUGAUGGAAGGUGGGGGGCUAACGCUGUCCGUGCCGCCGGGGCAGAAGCUCUUGGUAAUCCCAACAGAGGAUUGAGCAUCA
B13: chr7:97110809:97110810:-_ENSMUSG00000030619_ENSMUST00000107234|mus_mus|motif|central (ssRNA)
RNA: GGGAGUUCUACAGUCCGACGAUCACAAGACUUGGAAAGUAUCAAAUCGCCUAACCAUCGCACACAAUCAACAUAAUUCCGGUGUAUGUCUCUGGUAGAAAAGUCAGGAAAGUGGAUUUUCUGGGAAAUAAAUGGCCUGUUAGUCAACAGAGGAUUGAGCAUCA
B14: 104973726_104976136_736_3pUTR_ENSMUSG00000032563_ENSMUST00000142424|mouse|control|control (ssRNA)
RNA: GGGAGUUCUACAGUCCGACGAUCAUUUUAGUUCCAGGCCAGACUCUGGCAAUAUCCCCAGUUGAGAUAGCGCCAGGUCUCCUGUGGGUCUUUGUUUGACCAUGAGAAGCAGGUUGGCCUUUAAAUCCCCAUCUUUUCAUGACGCAACAGAGGAUUGAGCAUCA

What follows are binders tested against T1, UNK ZnF1-3 (human, UniProt Q9C0B0 31-174) (assay: nsRBNS (natural sequence RNA bind-n-seq); RBNS binding buffer (assumed for nsRBNS): 25 mM Tris pH 7.5, 150 mM KCl, 3 mM MgCl2, 0.01% Triton X-100, 500 ug/ml BSA, 20 U/ml SUPERase-In, 4 C; UNK is unkempt and MSI1 is Musashi-1; names of the RNAs are library labels; protein concentration not given here; high values mean tight binding).
T1 sequence: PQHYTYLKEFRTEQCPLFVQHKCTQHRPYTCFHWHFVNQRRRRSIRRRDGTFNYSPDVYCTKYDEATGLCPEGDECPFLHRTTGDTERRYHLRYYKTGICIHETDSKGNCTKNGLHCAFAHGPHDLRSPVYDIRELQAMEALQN

| Binder | binding signal |
| --- | --- |
| B1 | 1.58 enrichment R |
| B2 | 0.597 enrichment R |
| B3 | 1.32 enrichment R |
| B4 | 0.809 enrichment R |
| B5 | 0.666 enrichment R |
| B6 | 1.57 enrichment R |
| B7 | 3.03 enrichment R |
| B8 | 0.821 enrichment R |
| B9 | 0.52 enrichment R |
| B10 | 0.472 enrichment R |
| B11 | 1.1 enrichment R |
| B12 | 0.889 enrichment R |
| B13 | 1.64 enrichment R |
| B14 | 0.494 enrichment R |
